{
  "source": "the supplement of paper PMC8728848",
  "binders": {"B1": {"name": "SAG3 (Toxoplasma gondii), Q9BJ39 (protein)", "chain": "MQLWRRRAAGPASLGRQSLPLGCFFAAFGLCVLSAILGTGERGLFVAAGNSRRKITYFGTLTQKAPNWYRCSSTRAKEEVVGHVTLNKEHPDMTIECVDDGLGGEFLPLEGARSSYPRVCHIDAKDQDDCERNRGFLTDYIPGAKQYWYKIEKVEQNGEQSVLYKFTVPWILLPPAKQRYKVGCRYPNHEYCFVEVTVEPTPPMVEGKRVTCGYSESGPVNLEVDLSKNANFIEIRCGEQHHPQPSTYTLQYCSGDSVDPQKCSPQSLTNIFYDYSSSWWKGKLNGPDGATLTIPPGGFPEEDKSFLVGCSLTVDGPPFCNVKVRVAGNPRKWERGGGGHPGSGGLQPGTDGETQAGTGSSAGASSRMASVALAFLLGLLVHVAA"}},
  "assay_in_all_cases": "glycan array binding signal (z-score within array); higher = stronger binding",
  "conditions_in_all_cases": "glycan notation: IUPAC condensed, linker removed",
  "key": {"Gal(a1-3)Gal(b1-3)GlcNAc": {"biological_target": "Gal(a1-3)Gal(b1-3)GlcNAc", "in_short": "(§1)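 Columns mapping to the same glycan were averaged after glycan names were converted to IUPAC-condensed notation. The data come from 3228 arrays in the Consortium for Functional Glycomics database, limited to those with an available protein sequence. Binding is reported as a within-array Z-score averaged across arrays of one protein sequence and across linkers.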"}, "[1]": {"biological_target": "Gal(a1-3)Gal(b1-3)GlcNAc(b1-2)Man(a1-3)[Gal(a1-3)Gal(b1-3)GlcNAc(b1-2)Man(a1-6)]Man(b1-4)GlcNAc(b1-4)GlcNAc", "in_short": "as §1"}, "[2]": {"biological_target": "Gal(a1-3)Gal(b1-3)[Fuc(a1-4)]GlcNAc(b1-2)Man(a1-3)[Gal(a1-3)Gal(b1-3)[Fuc(a1-4)]GlcNAc(b1-2)Man(a1-6)]Man(b1-4)GlcNAc(b1-4)GlcNAc", "in_short": "as §1"}, "Gal(a1-3)Gal(b1-4)Glc": {"biological_target": "Gal(a1-3)Gal(b1-4)Glc", "in_short": "as §1"}, "Gal(a1-3)Gal(b1-4)GlcNAc": {"biological_target": "Gal(a1-3)Gal(b1-4)GlcNAc", "in_short": "as §1"}, "[3]": {"biological_target": "Gal(a1-3)Gal(b1-4)GlcNAc(b1-3)GalNAc", "in_short": "as §1"}, "[4]": {"biological_target": "Gal(a1-3)Gal(b1-4)[Fuc(a1-3)]GlcNAc", "in_short": "as §1"}, "[5]": {"biological_target": "Gal(a1-3)Gal(b1-4)[Fuc(a1-3)]GlcNAc(b1-2)Man(a1-3)[Gal(a1-3)Gal(b1-4)[Fuc(a1-3)]GlcNAc(b1-2)Man(a1-6)]Man(b1-4)GlcNAc(b1-4)GlcNAc", "in_short": "as §1"}, "Gal(a1-3)GalNAc": {"biological_target": "Gal(a1-3)GalNAc", "in_short": "as §1"}, "[6]": {"biological_target": "Gal(a1-3)[Gal(a1-4)]Gal(b1-4)GlcNAc", "in_short": "as §1"}, "[7]": {"biological_target": "Gal(a1-4)Gal(b1-3)GlcNAc(b1-2)Man(a1-3)[Gal(a1-4)Gal(b1-3)GlcNAc(b1-2)Man(a1-6)]Man(b1-4)GlcNAc(b1-4)GlcNAc", "in_short": "as §1"}, "Gal(a1-4)Gal(b1-4)Glc": {"biological_target": "Gal(a1-4)Gal(b1-4)Glc", "in_short": "as §1"}, "Gal(a1-4)Gal(b1-4)GlcNAc": {"biological_target": "Gal(a1-4)Gal(b1-4)GlcNAc", "in_short": "as §1"}, "[8]": {"biological_target": "Gal(a1-4)Gal(b1-4)GlcNAc(b1-2)Man(a1-3)[Gal(a1-4)Gal(b1-4)GlcNAc(b1-2)Man(a1-6)]Man(b1-4)GlcNAc(b1-4)GlcNAc", "in_short": "as §1"}, "[9]": {"biological_target": "Gal(a1-4)Gal(b1-4)GlcNAc(b1-3)Gal(b1-4)Glc", "in_short": "as §1"}, "Gal(a1-4)GlcNAc": {"biological_target": "Gal(a1-4)GlcNAc", "in_short": "as §1"}, "Gal(a1-6)Glc": {"biological_target": "Gal(a1-6)Glc", "in_short": "as §1"}, "Gal(b1-2)Gal": {"biological_target": "Gal(b1-2)Gal", "in_short": "as §1"}, "Gal(b1-3)Gal": {"biological_target": "Gal(b1-3)Gal", "in_short": "as §1"}, "Gal(b1-3)Gal(b1-4)GlcNAc": {"biological_target": "Gal(b1-3)Gal(b1-4)GlcNAc", "in_short": "as §1"}, "[10]": {"biological_target": "Gal(b1-3)Gal(b1-4)GlcNAc(b1-2)Man(a1-3)[Gal(b1-3)Gal(b1-4)GlcNAc(b1-2)Man(a1-6)]Man(b1-4)GlcNAc(b1-4)GlcNAc", "in_short": "as §1"}, "Gal(b1-3)GalNAc": {"biological_target": "Gal(b1-3)GalNAc", "in_short": "as §1"}, "[11]": {"biological_target": "Gal(b1-3)GalNAc(a1-3)[Fuc(a1-2)]Gal(b1-4)Glc", "in_short": "as §1"}, "[12]": {"biological_target": "Gal(b1-3)GalNAc(a1-3)[Fuc(a1-2)]Gal(b1-4)GlcNAc", "in_short": "as §1"}, "[13]": {"biological_target": "Gal(b1-3)GalNAc(b1-3)Gal(a1-4)Gal(b1-4)Glc", "in_short": "as §1"}, "[14]": {"biological_target": "Gal(b1-3)GalNAc(b1-4)Gal(b1-4)Glc", "in_short": "as §1"}, "[15]": {"biological_target": "Gal(b1-3)GalNAc(b1-4)[Neu5Ac(a2-3)]Gal(b1-4)Glc", "in_short": "as §1"}, "Gal(b1-3)GlcNAc": {"biological_target": "Gal(b1-3)GlcNAc", "in_short": "as §1"}, "[16]": {"biological_target": "Gal(b1-3)GlcNAc(a1-6)Gal(b1-4)GlcNAc", "in_short": "as §1"}, "[17]": {"biological_target": "Gal(b1-3)GlcNAc(b1-2)Man(a1-3)[Gal(b1-3)GlcNAc(b1-2)Man(a1-6)]Man(b1-4)GlcNAc(b1-4)GlcNAc", "in_short": "as §1"}, "[18]": {"biological_target": "Gal(b1-3)GlcNAc(b1-2)Man(a1-3)[Gal(b1-3)GlcNAc(b1-2)Man(a1-6)]Man(b1-4)GlcNAc(b1-4)[Fuc(a1-6)]GlcNAc", "in_short": "as §1"}, "[19]": {"biological_target": "Gal(b1-3)GlcNAc(b1-3)Gal(b1-3)GlcNAc", "in_short": "as §1"}, "[20]": {"biological_target": "Gal(b1-3)GlcNAc(b1-3)Gal(b1-4)Glc", "in_short": "as §1"}, "[21]": {"biological_target": "Gal(b1-3)GlcNAc(b1-3)Gal(b1-4)GlcNAc", "in_short": "as §1"}, "[22]": {"biological_target": "Gal(b1-3)GlcNAc(b1-3)Gal(b1-4)GlcNAc(b1-6)[Gal(b1-3)GlcNAc(b1-3)]Gal(b1-4)Glc", "in_short": "as §1"}, "[23]": {"biological_target": "Gal(b1-3)GlcNAc(b1-3)Gal(b1-4)[Fuc(a1-3)]GlcNAc(b1-6)[Gal(b1-3)GlcNAc(b1-3)]Gal(b1-4)Glc", "in_short": "as §1"}, "[24]": {"biological_target": "Gal(b1-3)GlcNAc(b1-3)GalNAc", "in_short": "as §1"}, "[25]": {"biological_target": "Gal(b1-3)GlcNAc(b1-6)Gal(b1-4)GlcNAc", "in_short": "as §1"}},
  "note": "The other results are listed elsewhere or left out.",
  "data": [
    {"binder": "B1", "values": [
      {"measurement": "glycan array binding signal (z-score)", "setting": "Gal(a1-3)Gal(b1-3)GlcNAc", "value": -0.342},
      {"measurement": "glycan array binding signal (z-score)", "setting": "[1]", "value": 0.338},
      {"measurement": "glycan array binding signal (z-score)", "setting": "[2]", "value": 0.273},
      {"measurement": "glycan array binding signal (z-score)", "setting": "Gal(a1-3)Gal(b1-4)Glc", "value": -0.051},
      {"measurement": "glycan array binding signal (z-score)", "setting": "Gal(a1-3)Gal(b1-4)GlcNAc", "value": -0.223},
      {"measurement": "glycan array binding signal (z-score)", "setting": "[3]", "value": -0.172},
      {"measurement": "glycan array binding signal (z-score)", "setting": "[4]", "value": -0.307},
      {"measurement": "glycan array binding signal (z-score)", "setting": "[5]", "value": 4.74},
      {"measurement": "glycan array binding signal (z-score)", "setting": "Gal(a1-3)GalNAc", "value": -0.176},
      {"measurement": "glycan array binding signal (z-score)", "setting": "[6]", "value": -0.284},
      {"measurement": "glycan array binding signal (z-score)", "setting": "[7]", "value": -0.051},
      {"measurement": "glycan array binding signal (z-score)", "setting": "Gal(a1-4)Gal(b1-4)Glc", "value": -0.539},
      {"measurement": "glycan array binding signal (z-score)", "setting": "Gal(a1-4)Gal(b1-4)GlcNAc", "value": -0.01},
      {"measurement": "glycan array binding signal (z-score)", "setting": "[8]", "value": -0.168},
      {"measurement": "glycan array binding signal (z-score)", "setting": "[9]", "value": 0.097},
      {"measurement": "glycan array binding signal (z-score)", "setting": "Gal(a1-4)GlcNAc", "value": -0.272},
      {"measurement": "glycan array binding signal (z-score)", "setting": "Gal(a1-6)Glc", "value": 0.318},
      {"measurement": "glycan array binding signal (z-score)", "setting": "Gal(b1-2)Gal", "value": -0.633},
      {"measurement": "glycan array binding signal (z-score)", "setting": "Gal(b1-3)Gal", "value": -0.083},
      {"measurement": "glycan array binding signal (z-score)", "setting": "Gal(b1-3)Gal(b1-4)GlcNAc", "value": 0.353},
      {"measurement": "glycan array binding signal (z-score)", "setting": "[10]", "value": 0.147},
      {"measurement": "glycan array binding signal (z-score)", "setting": "Gal(b1-3)GalNAc", "value": 0.113},
      {"measurement": "glycan array binding signal (z-score)", "setting": "[11]", "value": -0.32},
      {"measurement": "glycan array binding signal (z-score)", "setting": "[12]", "value": -0.103},
      {"measurement": "glycan array binding signal (z-score)", "setting": "[13]", "value": -0.315},
      {"measurement": "glycan array binding signal (z-score)", "setting": "[14]", "value": 0.085},
      {"measurement": "glycan array binding signal (z-score)", "setting": "[15]", "value": -0.033},
      {"measurement": "glycan array binding signal (z-score)", "setting": "Gal(b1-3)GlcNAc", "value": 0.181},
      {"measurement": "glycan array binding signal (z-score)", "setting": "[16]", "value": -0.581},
      {"measurement": "glycan array binding signal (z-score)", "setting": "[17]", "value": 0.157},
      {"measurement": "glycan array binding signal (z-score)", "setting": "[18]", "value": 0.257},
      {"measurement": "glycan array binding signal (z-score)", "setting": "[19]", "value": -0.023},
      {"measurement": "glycan array binding signal (z-score)", "setting": "[20]", "value": 0.063},
      {"measurement": "glycan array binding signal (z-score)", "setting": "[21]", "value": 0.141},
      {"measurement": "glycan array binding signal (z-score)", "setting": "[22]", "value": 0.551},
      {"measurement": "glycan array binding signal (z-score)", "setting": "[23]", "value": 0.016},
      {"measurement": "glycan array binding signal (z-score)", "setting": "[24]", "value": 0.363},
      {"measurement": "glycan array binding signal (z-score)", "setting": "[25]", "value": -0.244}
    ]}
  ]
}
